Here are results for 43 compounds from paper PMC4336329 (PLoS ONE, 2015).

Among all 310,000 compounds or so, about 2,200 (0.71%) showed an effect of 50% or more. Effects have a minus sign here. The list shows a part of the results.

For the experiment, the target named is human ether-à-go-go-related gene (hERG) potassium channel (human, UniProt Q12809). Description: primary screen, population patch clamp on CHO cells stably expressing hERG.
Chain of human ether-à-go-go-related gene (hERG) potassium channel (Q12809 whole entry, looked up): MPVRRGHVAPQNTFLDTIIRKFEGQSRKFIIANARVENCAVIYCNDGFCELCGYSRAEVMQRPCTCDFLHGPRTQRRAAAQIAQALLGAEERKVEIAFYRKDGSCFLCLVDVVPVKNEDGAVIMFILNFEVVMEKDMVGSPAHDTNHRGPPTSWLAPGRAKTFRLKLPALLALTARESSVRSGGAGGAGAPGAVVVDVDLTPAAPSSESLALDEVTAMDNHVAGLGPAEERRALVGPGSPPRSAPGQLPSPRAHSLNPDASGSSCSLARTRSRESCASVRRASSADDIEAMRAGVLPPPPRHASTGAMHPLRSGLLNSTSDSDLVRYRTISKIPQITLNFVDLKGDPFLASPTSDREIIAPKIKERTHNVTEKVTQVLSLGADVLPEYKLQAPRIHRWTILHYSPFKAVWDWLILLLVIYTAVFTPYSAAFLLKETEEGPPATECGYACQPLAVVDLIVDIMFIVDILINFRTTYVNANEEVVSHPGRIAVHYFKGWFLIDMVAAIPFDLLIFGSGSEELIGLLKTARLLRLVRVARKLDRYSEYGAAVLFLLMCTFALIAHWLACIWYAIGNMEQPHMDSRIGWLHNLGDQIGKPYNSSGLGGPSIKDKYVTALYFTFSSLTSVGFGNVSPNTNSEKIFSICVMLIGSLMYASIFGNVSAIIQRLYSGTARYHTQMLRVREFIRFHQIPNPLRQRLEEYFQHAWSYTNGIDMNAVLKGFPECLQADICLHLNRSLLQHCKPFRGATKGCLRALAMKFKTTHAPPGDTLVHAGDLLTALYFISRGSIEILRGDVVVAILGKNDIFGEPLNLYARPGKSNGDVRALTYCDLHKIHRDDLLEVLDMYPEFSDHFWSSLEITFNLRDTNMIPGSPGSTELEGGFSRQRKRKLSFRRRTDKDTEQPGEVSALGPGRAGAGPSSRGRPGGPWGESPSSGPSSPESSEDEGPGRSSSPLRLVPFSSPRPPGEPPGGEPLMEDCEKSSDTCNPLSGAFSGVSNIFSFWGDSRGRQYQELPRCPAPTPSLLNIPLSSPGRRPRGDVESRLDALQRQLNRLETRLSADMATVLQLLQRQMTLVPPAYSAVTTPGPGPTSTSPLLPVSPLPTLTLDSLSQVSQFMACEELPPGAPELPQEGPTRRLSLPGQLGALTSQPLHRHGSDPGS
In the case of `CC(C)CCN(C(=O)C1CSC2(C)CCC(=O)N12)c1c(N)n(Cc2ccccc2)c(=O)[nH]c1=O` (stereo not shown), the “hERG current change (%, negative = inhibition) at 1uM” value was 12.2%.

As to `Cc1ccc(-c2ccc(S(=O)(=O)N3CC(C)OC(C)C3)cc2)cc1` (stereo not shown), the “hERG current change (%, negative = inhibition) at 1uM” value stood at 12.4%.

As for `C#CCOc1ccc(/C=N/O)cc1Cl`, the “hERG current change (%, negative = inhibition) at 1uM” value turned out to be 12.1%.

On to `O=C(c1cccc(Cl)c1)C1CCCN(Cc2cccc3cnccc23)C1` (stereo not shown), for which the “hERG current change (%, negative = inhibition) at 1uM” value came out at 12.1%.

As to `CCC(C)n1c(-c2cccc(S(=O)(=O)N(CC)CC)c2)n[nH]c1=S` (stereo not shown), the “hERG current change (%, negative = inhibition) at 1uM” value stood at 16.4%.

Regarding `N#C/C(=C(/O)COC(=O)CSc1ccc(Cl)cc1)c1nc2ccccc2[nH]1`, the “hERG current change (%, negative = inhibition) at 1uM” value stood at 14.2%.

For the compound `CCN(CC)S(=O)(=O)c1ccc(N2CCCC2)c(NC(=O)c2c(-c3ccccc3)noc2C)c1`, the “hERG current change (%, negative = inhibition) at 1uM” value was 13.4%.

On to `CCCc1cc(=O)oc2cc(OCC(=O)N3CCN(C(=O)C4COc5ccccc5O4)CC3)ccc12` (stereo not shown), for which the “hERG current change (%, negative = inhibition) at 1uM” value is reported as -4.16%.

In the case of `C/C(=N\NC(N)=O)c1ccc(Cl)s1`, the “hERG current change (%, negative = inhibition) at 1uM” value is given as 18.5%.

As for `COc1cc(-c2c(-c3cc(OC)c(OC)c(OC)c3)noc2C)ccc1F`, the “hERG current change (%, negative = inhibition) at 1uM” value turned out to be 10.9%.

As for `Cc1ccccc1C(=O)NCCNC(=O)c1ccccn1`, the “hERG current change (%, negative = inhibition) at 1uM” value is 12.9%.

Regarding `Cc1cc(S(=O)(=O)NCC(C)C)ccc1OCC(=O)NCc1ccccn1`, the “hERG current change (%, negative = inhibition) at 1uM” value was 0.901%.

As to `COc1ccc(CNC(=O)CCN2C(=O)[C@@H]3Cc4ccccc4CN3C2=O)cc1`, the “hERG current change (%, negative = inhibition) at 1uM” value was 7.79%.

On to `COc1ccc(N2CC(C(=O)Nc3cc(C(F)(F)F)ccc3N3CCCC3)CC2=O)c(OC)c1` (stereo not shown), for which the “hERG current change (%, negative = inhibition) at 1uM” value was found to be 8.09%.

With `CN(Cc1ccccc1)CC(O)COc1ccc(CNCCc2cccnc2)cc1` (stereo not shown), the “hERG current change (%, negative = inhibition) at 1uM” value was -1.66%.

In the case of `COC(=O)c1ccc(N/N=C/c2cc([N+](=O)[O-])cc(OC)c2O)cc1`, the “hERG current change (%, negative = inhibition) at 1uM” value stood at 7.2%.

With `CNC(=S)N(CCc1c(C)[nH]c2ccc(C)cc12)Cc1cc(OC)c(OC)c(OC)c1`, the “hERG current change (%, negative = inhibition) at 1uM” value was 14.8%.

Turning to `Cc1ccc(N(C(=O)c2ccc(S(=O)(=O)N(C)C)cc2)C2C=CS(=O)(=O)C2)cc1` (stereo not shown), the “hERG current change (%, negative = inhibition) at 1uM” value stood at 14.5%.

With `CC(=O)c1ccc(NC(=O)c2ccc(S(=O)(=O)c3ccccc3)cc2)cc1`, the “hERG current change (%, negative = inhibition) at 1uM” value is reported as 8.83%.

As for `Cc1ccc(-c2csc3nc4cc(C(=O)NC5CCC(O)CC5)ccc4c(=O)n23)cc1` (stereo not shown), the “hERG current change (%, negative = inhibition) at 1uM” value came out at 5.66%.

Turning to `CCS(=O)(=O)N1CCC(C(=O)NCCc2ccccc2)CC1`, the “hERG current change (%, negative = inhibition) at 1uM” value stood at 10.5%.

Turning to `C/C(=C/C#N)Nc1ccc(C)cc1`, the “hERG current change (%, negative = inhibition) at 1uM” value is listed as 7.26%.

On to `CCCCn1c(N)c(N(CC(C)C)C(=O)c2cc(S(=O)(=O)N3CCOCC3)ccc2Cl)c(=O)[nH]c1=O`, for which the “hERG current change (%, negative = inhibition) at 1uM” value came out at 5.97%.

Consider `CCOc1ccc(Oc2nc(Nc3ccc(C)cc3)nc(N(C)C)n2)nn1`, for which the “hERG current change (%, negative = inhibition) at 1uM” value was found to be 15.4%.

In the case of `COc1ccc(Cn2c(CO)cnc2SCC(=O)Nc2cccc(NC(C)=O)c2)cc1`, the “hERG current change (%, negative = inhibition) at 1uM” value is 16.8%.

Consider `O=C(Nc1ccccc1)c1snc2c(=O)[nH]cnc12`, for which the “hERG current change (%, negative = inhibition) at 1uM” value is given as 21.7%.

In the case of `Cc1cccc(N2CCN(C(=O)CCN3C(=S)NC(C)(C)CC3C)CC2)c1C` (stereo not shown), the “hERG current change (%, negative = inhibition) at 1uM” value is listed as 4.44%.

Regarding `COC(=O)c1c(NC(=O)/C=C/C(=O)O)sc(C)c1-c1ccc(C(C)C)cc1`, the “hERG current change (%, negative = inhibition) at 1uM” value is listed as 8.97%.

With `O=C(NC1CCCCCC1)C(Cc1ccccc1)n1cccc1` (stereo not shown), the “hERG current change (%, negative = inhibition) at 1uM” value is reported as 12.6%.

Take `Cc1ccsc1/C=N/n1c(-c2ccccn2)n[nH]c1=S`: the “hERG current change (%, negative = inhibition) at 1uM” value is on record as 8.13%.

With `CCc1ccc(-n2c(O)cnc2Nc2nc(C)cc(C)n2)cc1`, the “hERG current change (%, negative = inhibition) at 1uM” value worked out at 5.91%.

In the case of `C#Cc1ccc([C@@H]2C=C(C(=O)OCC=C)O[C@H](OCC)[C@H]2CCCO)cc1`, the “hERG current change (%, negative = inhibition) at 1uM” value is 10%.

Take `COCCCNC(=O)COc1cc2c(c3oc(=O)c(C)c(C)c13)CCC(C)(C)O2`: the “hERG current change (%, negative = inhibition) at 1uM” value is on record as -3.73%.

For `Fc1ccc(OCc2nnc(SCCN3CCOCC3)o2)cc1`, the “hERG current change (%, negative = inhibition) at 1uM” value is recorded as -1.43%.

On to `O=C(N1CCN(c2ccc(F)cc2)CC1)C12CC3CC(CC(C3)C1)C2`, for which the “hERG current change (%, negative = inhibition) at 1uM” value worked out at 14.1%.

With `C/C(=N\NC(=O)c1ccc(CSc2nncn2C)cc1)c1cccs1`, the “hERG current change (%, negative = inhibition) at 1uM” value worked out at 10.1%.

Turning to `O=C(NCc1cccc(Cl)c1)c1cc(COc2ccc3ncccc3c2)on1`, the “hERG current change (%, negative = inhibition) at 1uM” value is on record as 12.8%.

As for `Cc1c(C(=O)Nc2ccccn2)oc2ccccc12`, the “hERG current change (%, negative = inhibition) at 1uM” value came out at 8.21%.

Take `CCc1ccc(Nc2nnc(SCc3cc(=O)n4ccsc4n3)s2)cc1`: the “hERG current change (%, negative = inhibition) at 1uM” value is reported as -5.58%.

Consider `O=C(CCl)Nc1ccccc1Sc1ccc(Cl)cc1`, for which the “hERG current change (%, negative = inhibition) at 1uM” value was -0.584%.

As to `O=C(C1CC1)N1CCc2[nH]c3ccccc3c2C1`, the “hERG current change (%, negative = inhibition) at 1uM” value was 6.65%.

Consider `Cc1ccc(C2CN=NC23CCc2ccccc2C3=O)cc1` (stereo not shown), for which the “hERG current change (%, negative = inhibition) at 1uM” value was -1.71%.

With `CCCCSc1cc(C)nc2ncnn12`, the “hERG current change (%, negative = inhibition) at 1uM” value is -1.6%.
